Experimental data: PubChem BioAssay AID485367 (National Center for Advancing Translational Sciences (NCATS), 2010)
In all, about 330,000 compounds went through this assay and about 560 (0.17%) were called active. The shares of active, inactive and inconclusive entries below differ from those in the screen. Calls come from the whole dose curve; as a rule, active = well fitted inhibition curve with a large enough effect; inconclusive = small, poorly fitted or top-dose-only effect, or effect the other way; inactive = flat fitted curve, though single readings scatter. Potencies of inconclusive entries are left out as doubtful fits.

Target: ATP-dependent 6-phosphofructokinase (Trypanosoma brucei brucei) (UniProt O15648)
Chain of UniProt O15648 (O15648 whole entry, looked up): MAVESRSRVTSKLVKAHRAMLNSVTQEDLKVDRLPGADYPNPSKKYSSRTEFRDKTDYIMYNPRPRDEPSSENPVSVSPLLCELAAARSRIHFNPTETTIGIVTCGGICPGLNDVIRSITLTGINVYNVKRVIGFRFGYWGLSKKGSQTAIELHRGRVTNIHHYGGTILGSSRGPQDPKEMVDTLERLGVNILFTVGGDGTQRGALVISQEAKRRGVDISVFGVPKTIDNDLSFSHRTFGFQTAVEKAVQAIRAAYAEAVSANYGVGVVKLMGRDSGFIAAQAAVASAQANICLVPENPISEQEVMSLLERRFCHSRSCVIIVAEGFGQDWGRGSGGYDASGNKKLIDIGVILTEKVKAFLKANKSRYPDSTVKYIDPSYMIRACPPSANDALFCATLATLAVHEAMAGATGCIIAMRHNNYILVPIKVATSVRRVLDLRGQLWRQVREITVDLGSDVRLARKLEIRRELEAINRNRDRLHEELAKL
Assay: qHTS Assay to Find Inhibitors of T. brucei phosphofructokinase; note: nearly all actives have a fitted effect of over 60% in size;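 for activity, negative = inhibition: 0% = uninhibited 1x PFK enzyme wells and -100% = no-enzyme wells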
Settings: T. brucei PFK, ADP-Glo luminescence; activity, negative = inhibition: at 57.5 µM (top of the series)
Summary of the method: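 Compounds were pin-transferred as a titration series up to 57 uM into substrate buffer (0.5 mM F6P, 0.1 mM ATP, pH 8.0), then 1.25 nM PFK was added and reactions ran 45 min before ADP-Glo detection.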
Potency is the fitted concentration of half-maximal effect; tags give direction and shape of the fitted curve.

SMILES	Potency	activity, negative = inhibition
Cc1nnc(N2C(=O)c3oc4ccccc4c(=O)c3C2c2ccco2)s1 (centres undefined)	inconclusive [falling, single point]	–
CCNS(=O)(=O)c1ccc(NC(=O)Cc2ccc(F)cc2)cc1	inconclusive [falling, single point]	–
O=c1cc(-c2ccc([N+](=O)[O-])cc2)nc2cc(-c3ccc(Cl)cc3)[nH]n12	inconclusive [falling, single point]	–
Cc1ccc(C(=O)O/N=C(\N)c2ccccn2)c(Cl)c1	inconclusive [falling, partial curve]	–
O=[N+]([O-])c1c(Nc2cccc(O)c2)cc(Cl)c2nonc12	inconclusive [falling, partial curve]	–
CC(=O)c1ccc(Nc2cc(C)nc3ncnn23)cc1	–	inactive: 0.191%
CCc1cccc(N(CC(=O)NCc2ccc(F)cc2)C(=O)c2csnn2)c1	inconclusive [falling, single point]	–
O=C(CCc1nc2ccccc2c(=O)[nH]1)Nc1ccc(N2CCCCC2)cc1	inconclusive [activator, partial curve]	–
Cc1nn(Cc2ccc(Cl)cc2)c(Cl)c1/C=N/NC(=O)c1cccnc1	inconclusive [falling, single point]	–
CN(Cc1ccco1)c1ncnc2ccc(-c3ccoc3)cc12	inconclusive [falling, single point]	–
COc1ccc(/C=N/Nc2ccccn2)cc1OC	–	inactive: -0.372%
CCc1ccc(C(=O)Nc2ccc3nc(C)ccc3c2)cc1	–	inactive: -2.73%
Brc1cccc(OCCn2ccnc2)c1	active: 21.3 µM	–
O=C(c1cccs1)[C@@H]1[C@@H]2C(=O)N(Cc3ccc4c(c3)OCO4)C(=O)[C@@H]2C2c3ccccc3C=CN21 (some centres undefined)	inconclusive [activator, partial curve]	–
COc1ccc2oc(C(=O)OCC(=O)N(Cc3ccccc3)C(C)C)c(C)c2c1	–	inactive: -6.18%
CCN(c1ccccc1)S(=O)(=O)c1cc(C(=O)NCC(c2ccco2)N2CCCCC2)ccc1C (centres undefined)	inconclusive [falling, single point]	–
Cc1nc2ccccn2c1/C(O)=C1\C(=O)C(=O)N(CCCn2ccnc2)C1c1ccncc1 (centres undefined)	inconclusive [falling, partial curve]	–
CCNC(=O)CC1C(=O)N(c2ccc(F)cc2)C(=O)N1Cc1cccs1 (centres undefined)	inconclusive [falling, single point]	–
Cc1cccc(NC(=O)c2cc(S(=O)(=O)N3CCOCC3)cn2C)c1C	inconclusive [falling, single point]	–
Cc1cc(C)nc(SCCCNCc2c(F)cccc2Cl)n1	inconclusive [falling, single point]	–
COC(=O)c1ccc2c(c1)C(C)(C)C(/C=C/c1ccc(O)cc1)=[N+]2C	–	inactive: -22.8%
O=C(CSc1nc2c(cnn2-c2ccc(F)cc2)c(=O)[nH]1)N1N=C(c2cccs2)CC1c1ccc(F)cc1 (centres undefined)	inconclusive [falling, full curve]	–
COc1ccc(OC)c(S(=O)(=O)N2CCC(C(=O)NCc3ccccc3)CC2)c1	inconclusive [falling, single point]	–
Cn1c(=O)n(C)c2cc(S(=O)(=O)Nc3ccccc3)ccc21	–	inactive: -0.492%
CSc1ccc(/C=C(/NC(=O)c2ccc(C)cc2)C(=O)Nc2cccc(C)c2)cc1	–	inactive: -1%

SMILES	Potency	activity, negative = inhibition
S=c1[nH]c2ncccc2o1	–	inactive: 1.19%
CCC(=O)N(CCC(c1ccco1)c1ccccc1OC)Cc1cccs1 (centres undefined)	inconclusive [activator, single point]	–
O=S(=O)(c1ccc(NC(=S)N/N=C/c2ccc(O)c(O)c2)cc1)N1CCOCC1	–	inactive: -10.8%
Cc1ccc(Cn2nnnc2CN2CCC(c3nc4ccc(Cl)cc4[nH]3)CC2)cc1	–	inactive: -0.104%
O=S(=O)(Nc1cc(Sc2ncn[nH]2)c(O)c2ccccc12)c1ccccc1	inconclusive [falling, partial curve]	–
N#CCc1ccc(NC(=O)Nc2cccc(Cl)c2)cc1	inconclusive [falling, single point]	–
CCSc1nnc(NC(=O)CSc2nccn2-c2cccc(C)c2C)s1	–	inactive: -0.987%
Cn1c(Cn2c3ccccc3c3ccccc32)n[nH]c1=S	inconclusive [falling, partial curve]	–
O=C(Cc1ccc(Cl)c(Cl)c1)Nc1cccc(S(=O)(=O)N2CCOCC2)c1	active: 21.3 µM	–
C=CCN(C(=O)c1cccc(S(=O)(=O)N2CCN(C)CC2)c1)c1nc(-c2ccccc2)cs1	inconclusive [falling, single point]	–
O=C1NC(=S)N/C1=C/c1cc([N+](=O)[O-])ccc1O	–	inactive: 5.59%
O=C1C2=C(C(=O)c3ccccc31)C1O[C@](CCCCN3C(=O)c4ccccc4C3=O)(Cc3c1ccc1ccccc31)O2	–	inactive: 3.27% [at 11.5 µM]
Cc1cccc(OCC(=O)N/N=C/C=C/c2ccco2)c1	–	inactive: -18.9%
CCC(=O)NC1=C(Cl)C(=O)C(NC(=O)CC)=C(Cl)C1=O	inconclusive [falling, single point]	–
O=C(Cn1cc(SCc2cccc(Cl)c2)c2ccccc21)N1CCOCC1	inconclusive [falling, single point]	–
COc1cc(/C=C/C(=O)Nc2nnc(CC(C)C)s2)cc(OC)c1OC	inconclusive [falling, single point]	–
O=C(NCc1ccccc1)c1ccc(CN2CCC(Cc3ccccc3)CC2)cc1	–	inactive: -2.23%
O=C(C(=S)N1CCOCC1)c1c[nH]c2ccccc12	inconclusive [falling, partial curve]	–
CCC1OC23CCCCC2C(C#N)(C(=N)O3)C1(C#N)C#N (centres undefined)	–	inactive: -5.91%
C/C(=N\Nc1ncc(Cl)cc1Cl)c1ccc2c(c1)OCO2	–	inactive: -1.26%
Cc1cc(C(=O)N/N=C2/CC(C)CC(C)(C)C2)c(C)o1 (centres undefined)	–	inactive: -5.61%
O=C(NNC(=O)c1ccc2nonc2c1)Nc1ccc(Cl)cc1	active: 15.1 µM	–
Cc1cccc(N2C(S)=C(C#N)C(=O)NC2c2cccs2)c1 (centres undefined)	–	inactive: 4.92%
CC1=NN(c2cccc(C(=O)O)c2)C(=O)/C1=C\C=C\c1ccco1	active: 21.3 µM	–
CCOC(=O)C1=C(C)NC(=S)NC1c1ccc(-c2ccc(Cl)cc2)o1 (centres undefined)	–	inactive: 10.5%

SMILES	Potency	activity, negative = inhibition
c1ccc(COc2ccc(Nc3ncnc4nc[nH]c34)cc2)cc1	inconclusive [falling, single point]	–
COc1ccc(CCNC(=O)CSc2ccc3ccccc3c2)cc1OC	–	inactive: 9.27%
O=C(COC(=O)c1cnccn1)Nc1cccc(F)c1	inconclusive [falling, single point]	–
C=CCn1c(=O)[nH]c2cc(C(=O)N3CCN(c4ccc(C(C)=O)cc4)CC3)ccc2c1=O	inconclusive [falling, partial curve]	–
O=C(CS(=O)(=O)c1cccc(Cl)c1)Nc1ccccc1Cl	–	inactive: 3.55%
Cc1ccc(C(C2=C(O)CC(C)(C)CC2=O)C2C(=O)CC(C)(C)CC2=O)o1 (centres undefined)	inconclusive [activator, partial curve]	–
CC(C)Nc1ccccc1	inconclusive [falling, single point]	–
COc1ccc(O)c(N)c1	inconclusive [activator, single point]	–
O=C(CSc1nc(-c2ccc(F)cc2)nc2c1Cc1ccccc1O2)Nc1cccc(C(=O)O)c1	inconclusive [falling, full curve, poor fit]	–
CC(=O)c1ccc(S(=O)(=O)NCCCC(=O)N(C)Cc2ccc3c(c2)OCO3)cc1	–	inactive: -0.239%
CCOC(=O)N1CCC(N2Cc3cccc(C(=O)NCc4ccc(OC)cc4)c3C2=O)CC1	inconclusive [falling, single point]	–
O=C(N/N=C/c1cn(Cc2cccc(F)c2)c2ccccc12)c1cc(O)cc(O)c1	inconclusive [falling, partial curve]	–
C=CCn1c(CNc2ccc(C)cc2)nnc1SCC(=O)N/N=C/c1ccc(O)cc1O	–	inactive: 0.734%
CN=c1scc(C)n1/N=C/c1ccc(O)c(O)c1O	inconclusive [falling, partial curve]	–
C=CCNc1nc(C(=O)OCC(=O)Nc2cc(S(C)(=O)=O)ccc2Cl)cs1	inconclusive [falling, single point]	–
O=C(Nc1n[nH]c(=S)s1)c1ccco1	inconclusive [falling, partial curve]	–
COc1ccc(-c2noc(C3CCCN(C(=O)c4ccccc4)C3)n2)cc1 (centres undefined)	–	inactive: -3.26%
Cc1onc(-c2ccccc2)c1C(=O)NCCc1ccc(Cl)cc1	–	inactive: -4.42%
N#C/C(=N\Nc1ccc(Br)cc1)C(=N)N1CCOCC1	inconclusive [falling, single point]	–
O=C(CSc1n[nH]c(=O)n1C1CC1)Nc1ccc(Cl)c(Cl)c1	inconclusive [falling, partial curve]	–
Cc1cccn2c(=O)c(/C=C(\C#N)C(=O)NCc3ccco3)c(N3CCC(C(N)=O)CC3)nc12	inconclusive [falling, single point]	–
CCOC(=O)C1(C)C(C(=O)OC)=C(c2ccc(OC)cc2)c2ccccc2N1C(=O)OC (centres undefined)	inconclusive [activator, single point]	–
Cc1cc(OCC(=O)Nc2ccncc2)ccc1[N+](=O)[O-]	inconclusive [falling, single point]	–
COc1ccc(-c2nc[nH]c2[N+](=O)[O-])cc1	–	inactive: -1.6%
